No constants are given. Whether binding was seen depends on the method and setting. In cells and extracts the contact can be indirect. Some entries that bind do so weakly or less than the wild type. For some of these results: Tags and fused reporters may be left off the sequences shown. Values belong to the substance of their own block, whether it stands above or below them.
How the values were obtained:
GFP-TAB1 = molecular target: T1, GFP-TAB1 (UniProt Q15750); assay: co-IP; HEK293IL-1R cells transfected, GFP-TAK1 or GFP-TAB1 alone (no co-expressed MYC-TAB1); pulldown with GFP-Trap_A agarose beads, 2 h at 4°C, washes with lysis buffer (0,5 M NaCl); immunoblotting
T1 sequence: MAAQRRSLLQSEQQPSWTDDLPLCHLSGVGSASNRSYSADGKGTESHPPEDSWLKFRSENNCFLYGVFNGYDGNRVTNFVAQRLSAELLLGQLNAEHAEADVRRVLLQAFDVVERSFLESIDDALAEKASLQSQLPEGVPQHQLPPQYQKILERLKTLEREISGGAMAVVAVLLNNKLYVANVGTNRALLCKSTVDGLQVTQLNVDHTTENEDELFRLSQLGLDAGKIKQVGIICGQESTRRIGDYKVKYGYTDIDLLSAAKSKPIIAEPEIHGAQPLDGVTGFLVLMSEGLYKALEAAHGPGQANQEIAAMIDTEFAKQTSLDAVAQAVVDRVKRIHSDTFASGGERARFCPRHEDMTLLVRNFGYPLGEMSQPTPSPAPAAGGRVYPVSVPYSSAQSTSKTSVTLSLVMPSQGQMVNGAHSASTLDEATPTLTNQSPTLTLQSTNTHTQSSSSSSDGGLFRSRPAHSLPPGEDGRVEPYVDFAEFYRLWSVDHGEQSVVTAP

The chains behind the UniProt entries cited, without tags or fusion partners. Where a name states a change or a piece, a line headed by the entry shows the natural chain unless it says otherwise.
UniProt P35396: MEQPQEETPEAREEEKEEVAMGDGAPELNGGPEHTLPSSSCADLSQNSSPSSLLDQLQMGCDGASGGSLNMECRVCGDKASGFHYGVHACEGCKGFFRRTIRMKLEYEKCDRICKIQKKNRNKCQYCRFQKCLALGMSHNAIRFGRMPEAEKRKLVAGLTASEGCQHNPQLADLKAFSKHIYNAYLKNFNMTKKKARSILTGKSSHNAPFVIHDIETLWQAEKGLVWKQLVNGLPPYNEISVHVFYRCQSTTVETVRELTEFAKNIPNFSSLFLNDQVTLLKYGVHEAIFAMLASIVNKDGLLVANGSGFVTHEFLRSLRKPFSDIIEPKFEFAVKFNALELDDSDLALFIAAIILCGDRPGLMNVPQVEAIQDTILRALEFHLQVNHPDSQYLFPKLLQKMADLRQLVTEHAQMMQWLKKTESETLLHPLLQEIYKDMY
UniProt P04792: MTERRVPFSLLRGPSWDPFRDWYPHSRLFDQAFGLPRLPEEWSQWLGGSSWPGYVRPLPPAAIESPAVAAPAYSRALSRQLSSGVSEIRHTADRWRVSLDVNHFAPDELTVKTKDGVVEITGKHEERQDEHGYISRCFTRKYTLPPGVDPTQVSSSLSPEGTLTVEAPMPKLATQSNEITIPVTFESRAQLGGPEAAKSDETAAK
UniProt Q04206: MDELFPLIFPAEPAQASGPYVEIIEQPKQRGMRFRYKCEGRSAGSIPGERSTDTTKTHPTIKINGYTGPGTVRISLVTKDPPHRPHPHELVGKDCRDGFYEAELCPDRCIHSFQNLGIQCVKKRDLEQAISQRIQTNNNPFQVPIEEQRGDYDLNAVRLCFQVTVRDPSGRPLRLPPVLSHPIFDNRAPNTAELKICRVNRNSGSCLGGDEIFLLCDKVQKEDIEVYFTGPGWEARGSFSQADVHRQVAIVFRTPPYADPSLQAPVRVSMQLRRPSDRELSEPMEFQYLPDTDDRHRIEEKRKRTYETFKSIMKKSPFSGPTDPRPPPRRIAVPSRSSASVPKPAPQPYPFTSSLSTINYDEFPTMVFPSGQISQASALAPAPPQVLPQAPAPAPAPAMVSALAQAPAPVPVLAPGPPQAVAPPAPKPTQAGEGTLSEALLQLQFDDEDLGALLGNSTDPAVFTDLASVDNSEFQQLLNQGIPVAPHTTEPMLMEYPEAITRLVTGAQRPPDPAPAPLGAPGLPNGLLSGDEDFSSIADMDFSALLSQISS
UniProt Q03181: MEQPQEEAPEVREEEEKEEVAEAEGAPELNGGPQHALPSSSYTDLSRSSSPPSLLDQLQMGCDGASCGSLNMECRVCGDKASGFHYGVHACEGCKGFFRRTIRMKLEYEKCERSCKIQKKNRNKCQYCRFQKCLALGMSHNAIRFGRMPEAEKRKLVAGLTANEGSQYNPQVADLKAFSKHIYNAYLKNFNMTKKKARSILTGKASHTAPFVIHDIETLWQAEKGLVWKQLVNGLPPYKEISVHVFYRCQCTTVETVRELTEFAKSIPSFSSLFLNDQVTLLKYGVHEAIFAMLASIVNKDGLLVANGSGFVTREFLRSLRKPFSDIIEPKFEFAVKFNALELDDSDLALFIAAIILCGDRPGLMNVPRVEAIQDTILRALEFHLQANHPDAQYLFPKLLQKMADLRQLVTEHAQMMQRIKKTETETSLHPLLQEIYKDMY

GFP-TAK1 1–362 = molecular target: T2, GFP-TAK1 1–362 (UniProt O43318); assay: co-IP; GFP-TAK1 deletion mutants with FLAG-PPARβ/δ; 'experimental details were as in Figure 6A' (HEK293IL-1R, pulldown with an antibody against GFP); whether MYC-TAB1 was co-expressed is not told
T2 sequence: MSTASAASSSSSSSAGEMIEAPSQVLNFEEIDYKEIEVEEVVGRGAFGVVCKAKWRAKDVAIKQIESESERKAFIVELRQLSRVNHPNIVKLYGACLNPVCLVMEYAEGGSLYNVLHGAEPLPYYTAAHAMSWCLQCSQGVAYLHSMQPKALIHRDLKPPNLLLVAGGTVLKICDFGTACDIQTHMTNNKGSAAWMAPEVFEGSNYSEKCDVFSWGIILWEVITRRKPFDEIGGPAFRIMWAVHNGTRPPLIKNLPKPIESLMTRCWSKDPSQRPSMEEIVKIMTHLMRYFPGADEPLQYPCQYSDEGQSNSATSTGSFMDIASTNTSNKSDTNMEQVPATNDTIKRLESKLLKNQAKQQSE

GFP-TAK1 1–493 = molecular target: T3, GFP-TAK1 1–493 (UniProt O43318); assay: as above
T3 sequence: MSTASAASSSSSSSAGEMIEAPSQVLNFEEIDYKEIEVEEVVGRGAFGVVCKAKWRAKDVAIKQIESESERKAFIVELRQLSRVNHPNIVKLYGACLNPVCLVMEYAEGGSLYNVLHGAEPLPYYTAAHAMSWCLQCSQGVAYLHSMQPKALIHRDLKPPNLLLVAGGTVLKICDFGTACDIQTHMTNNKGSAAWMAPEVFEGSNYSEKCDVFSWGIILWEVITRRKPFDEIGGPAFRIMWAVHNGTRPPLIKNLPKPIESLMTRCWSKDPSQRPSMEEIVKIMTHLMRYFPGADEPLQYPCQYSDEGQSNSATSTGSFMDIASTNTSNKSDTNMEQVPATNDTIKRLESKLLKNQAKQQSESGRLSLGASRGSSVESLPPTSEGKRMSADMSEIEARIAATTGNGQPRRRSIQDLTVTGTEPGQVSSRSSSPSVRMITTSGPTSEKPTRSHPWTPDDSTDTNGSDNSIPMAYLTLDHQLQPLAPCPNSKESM

GFP-TAK1 1–296 = molecular target: T4, GFP-TAK1 1–296 (UniProt O43318); assay: as above
T4 sequence: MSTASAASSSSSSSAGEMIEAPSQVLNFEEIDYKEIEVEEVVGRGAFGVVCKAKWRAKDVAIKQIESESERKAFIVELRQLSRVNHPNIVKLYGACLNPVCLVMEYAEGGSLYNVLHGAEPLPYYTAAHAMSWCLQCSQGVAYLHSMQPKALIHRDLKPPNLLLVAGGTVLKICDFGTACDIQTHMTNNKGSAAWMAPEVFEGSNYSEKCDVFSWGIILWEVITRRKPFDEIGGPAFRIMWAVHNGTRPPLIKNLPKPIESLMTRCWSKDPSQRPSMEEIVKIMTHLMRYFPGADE

GFP-TAK1 1–579 (wt) = molecular target: T5, GFP-TAK1 1–579 (wt) (UniProt O43318); assay: as above
T5 sequence: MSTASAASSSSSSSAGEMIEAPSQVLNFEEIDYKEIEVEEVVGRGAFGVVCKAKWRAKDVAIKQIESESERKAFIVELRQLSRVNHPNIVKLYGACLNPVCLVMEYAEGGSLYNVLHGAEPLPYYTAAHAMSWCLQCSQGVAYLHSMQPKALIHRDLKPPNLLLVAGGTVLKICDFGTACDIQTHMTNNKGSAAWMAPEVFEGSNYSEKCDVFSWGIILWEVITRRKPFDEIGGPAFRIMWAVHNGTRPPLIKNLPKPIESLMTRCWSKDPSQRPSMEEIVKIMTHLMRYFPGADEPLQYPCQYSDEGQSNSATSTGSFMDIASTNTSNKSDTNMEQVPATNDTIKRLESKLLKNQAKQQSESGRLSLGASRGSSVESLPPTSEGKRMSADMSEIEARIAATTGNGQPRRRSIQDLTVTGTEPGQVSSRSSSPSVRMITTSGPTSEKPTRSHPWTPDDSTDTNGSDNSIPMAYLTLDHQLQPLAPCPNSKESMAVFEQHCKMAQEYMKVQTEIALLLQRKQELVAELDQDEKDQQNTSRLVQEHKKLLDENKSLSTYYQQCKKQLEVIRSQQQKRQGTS

3xFLAG-PPARβ/δ (mouse) [1] = molecular target: 3xFLAG-PPARβ/δ (mouse) (UniProt P35396); assay: co-IP; HEK293T cells transfected, fractionated; nuclear fraction; pulldown with an antibody against FLAG; immunoblotting with anti-HA antibodies
3xFLAG-PPARβ/δ (mouse) [2] = molecular target: 3xFLAG-PPARβ/δ (mouse) (UniProt P35396); assay: co-IP; HEK293T cells transfected, fractionated; cytoplasmic fraction; pulldown with an antibody against FLAG; immunoblotting
3xFLAG-PPARβ/δ (mouse) [3] = molecular target: 3xFLAG-PPARβ/δ (mouse) (UniProt P35396); assay: co-IP; HEK293IL-1R cells transfected; pulldown with FLAG antibodies on Protein G Sepharose, 2 h at 4°C, washes with lysis buffer (0,5 M NaCl); immunoblotting
[4] = molecular target: endogenous HSP27 (human (endogenous in HEK293T)) (UniProt P04792); assay: co-IP; untransfected HEK293T cells treated with formaldehyde to stabilize protein interactions (ChIP protocol); immunoprecipitation with antibodies against HSP27, TAK1 or TAB1; immunoblotting with PPARβ/δ-specific antibodies
[5] = molecular target: T6, endogenous TAK1 (human (endogenous in HEK293T)) (UniProt O43318); assay: as above
T6 sequence: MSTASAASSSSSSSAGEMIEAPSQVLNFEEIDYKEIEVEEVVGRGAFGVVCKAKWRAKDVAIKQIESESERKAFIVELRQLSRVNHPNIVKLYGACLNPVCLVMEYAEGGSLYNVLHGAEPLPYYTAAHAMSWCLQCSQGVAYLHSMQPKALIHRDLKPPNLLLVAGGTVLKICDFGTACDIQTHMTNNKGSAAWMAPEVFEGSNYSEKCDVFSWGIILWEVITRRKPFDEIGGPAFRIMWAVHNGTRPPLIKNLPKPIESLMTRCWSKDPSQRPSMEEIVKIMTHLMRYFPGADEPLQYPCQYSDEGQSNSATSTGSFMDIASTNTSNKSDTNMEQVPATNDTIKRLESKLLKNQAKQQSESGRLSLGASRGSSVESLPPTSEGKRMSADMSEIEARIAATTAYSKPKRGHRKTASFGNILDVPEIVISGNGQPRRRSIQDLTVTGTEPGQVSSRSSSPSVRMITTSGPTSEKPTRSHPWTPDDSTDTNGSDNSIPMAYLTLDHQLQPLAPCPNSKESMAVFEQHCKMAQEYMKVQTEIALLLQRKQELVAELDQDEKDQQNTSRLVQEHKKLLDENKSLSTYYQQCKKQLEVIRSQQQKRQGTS

[6] = molecular target: T7, endogenous TAB1 (human (endogenous in HEK293T)) (UniProt Q15750); assay: as above
T7 sequence: T1 sequence

Substance: 3xFLAG-PPARβ/δ 4-165 (from UniProt P35396 4-165) (domain or fragment)
binding (GFP-TAB1): no binding

Substance: HA-tagged HSP27 (from UniProt P04792 1-205)
binding (3xFLAG-PPARβ/δ (mouse) [1]): no binding (condition: nuclear fraction)
binding (3xFLAG-PPARβ/δ (mouse) [2]): binds

Substance: HA-tagged p65 (from UniProt Q04206 1-551)
binding (3xFLAG-PPARβ/δ (mouse) [3]): binds

Second part, the substance after the results:

binding (GFP-TAK1 1–362): binds
binding (GFP-TAK1 1–493): binds
binding (GFP-TAK1 1–296): binds
binding (GFP-TAK1 1–579 (wt)): binds
binding (GFP-TAB1): binds
Substance: 3xFLAG-PPARβ/δ (from UniProt P35396 1-440)

binding (GFP-TAB1): no binding
Substance: FLAG-PPARβ/δ 4–152 (from UniProt P35396 4-152) (domain or fragment)

binding [4]: binds
binding [5]: binds
binding [6]: binds
Substance: endogenous PPARβ/δ (from UniProt Q03181 1-441)
